T1: human IL-2Rαβγ (high-affinity IL-2 receptor) on cells (human, UniProt P01589 22-272; P14784 27-551; P31785 23-369)
T1 sequence (looked up) 1: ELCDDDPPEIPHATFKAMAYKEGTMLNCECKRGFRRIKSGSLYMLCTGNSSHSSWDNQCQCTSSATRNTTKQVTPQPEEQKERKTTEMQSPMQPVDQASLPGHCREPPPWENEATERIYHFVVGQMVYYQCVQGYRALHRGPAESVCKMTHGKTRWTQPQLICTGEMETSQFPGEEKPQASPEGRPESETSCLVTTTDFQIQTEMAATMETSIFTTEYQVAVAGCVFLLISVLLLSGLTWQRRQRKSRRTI
T1 sequence (looked up) 2: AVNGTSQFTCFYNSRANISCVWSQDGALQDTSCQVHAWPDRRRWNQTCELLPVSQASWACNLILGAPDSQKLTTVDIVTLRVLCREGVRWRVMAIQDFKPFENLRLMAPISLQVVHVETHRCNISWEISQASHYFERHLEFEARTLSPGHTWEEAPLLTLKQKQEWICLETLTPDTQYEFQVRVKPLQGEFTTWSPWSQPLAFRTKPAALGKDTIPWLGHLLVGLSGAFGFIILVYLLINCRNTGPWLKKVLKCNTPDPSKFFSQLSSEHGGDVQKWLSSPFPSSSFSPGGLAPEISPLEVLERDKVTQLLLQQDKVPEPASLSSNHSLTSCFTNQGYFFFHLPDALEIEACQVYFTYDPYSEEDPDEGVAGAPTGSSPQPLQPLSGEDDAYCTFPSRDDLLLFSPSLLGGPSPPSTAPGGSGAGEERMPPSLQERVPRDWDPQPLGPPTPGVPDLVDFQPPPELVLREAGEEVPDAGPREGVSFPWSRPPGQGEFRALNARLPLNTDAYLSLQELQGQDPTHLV
T1 sequence (looked up) 3: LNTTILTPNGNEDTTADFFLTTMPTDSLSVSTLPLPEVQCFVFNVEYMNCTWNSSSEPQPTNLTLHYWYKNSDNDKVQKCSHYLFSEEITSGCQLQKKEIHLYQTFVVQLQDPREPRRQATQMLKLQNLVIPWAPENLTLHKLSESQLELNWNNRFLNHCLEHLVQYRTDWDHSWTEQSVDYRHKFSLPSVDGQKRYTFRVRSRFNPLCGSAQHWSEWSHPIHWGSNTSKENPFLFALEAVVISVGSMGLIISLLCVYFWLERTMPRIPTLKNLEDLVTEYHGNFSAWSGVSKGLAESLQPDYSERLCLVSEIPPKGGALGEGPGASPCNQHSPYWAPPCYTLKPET

T2: human IL-2Rβγ on CD8+ effector T cells (human, UniProt P14784 27-551; P31785 23-369)
T2 construct: whole, on cells; the assay was on primary human CD8+ effector T cells
T2 sequence (looked up) 1: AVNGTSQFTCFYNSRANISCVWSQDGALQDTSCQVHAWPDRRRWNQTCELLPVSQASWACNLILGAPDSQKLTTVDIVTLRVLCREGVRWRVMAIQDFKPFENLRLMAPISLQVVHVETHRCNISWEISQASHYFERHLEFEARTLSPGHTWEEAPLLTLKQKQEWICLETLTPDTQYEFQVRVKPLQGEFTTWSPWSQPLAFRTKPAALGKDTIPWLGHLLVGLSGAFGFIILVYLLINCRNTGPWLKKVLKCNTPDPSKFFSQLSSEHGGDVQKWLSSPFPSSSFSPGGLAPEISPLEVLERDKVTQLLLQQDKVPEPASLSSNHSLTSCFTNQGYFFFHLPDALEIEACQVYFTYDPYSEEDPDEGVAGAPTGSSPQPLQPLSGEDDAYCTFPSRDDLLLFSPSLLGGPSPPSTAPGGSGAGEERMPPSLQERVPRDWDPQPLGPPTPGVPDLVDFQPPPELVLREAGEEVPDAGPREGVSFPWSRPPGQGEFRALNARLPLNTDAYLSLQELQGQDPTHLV
T2 sequence (looked up) 2: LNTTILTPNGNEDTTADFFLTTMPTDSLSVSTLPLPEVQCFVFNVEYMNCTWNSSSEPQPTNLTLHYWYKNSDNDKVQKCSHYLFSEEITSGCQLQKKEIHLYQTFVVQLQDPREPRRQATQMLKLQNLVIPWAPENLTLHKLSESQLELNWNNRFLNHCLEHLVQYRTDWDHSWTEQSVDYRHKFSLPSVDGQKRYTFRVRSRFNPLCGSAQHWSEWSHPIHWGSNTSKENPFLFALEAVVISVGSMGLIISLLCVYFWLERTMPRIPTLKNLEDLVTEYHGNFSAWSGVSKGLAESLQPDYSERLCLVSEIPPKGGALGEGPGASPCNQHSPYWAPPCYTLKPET

T3: recombinant human IL-2Rβγ protein (human, UniProt P14784 27-240; P31785 23-262)
T3 construct: Bought protein
T3 sequence (looked up) 1: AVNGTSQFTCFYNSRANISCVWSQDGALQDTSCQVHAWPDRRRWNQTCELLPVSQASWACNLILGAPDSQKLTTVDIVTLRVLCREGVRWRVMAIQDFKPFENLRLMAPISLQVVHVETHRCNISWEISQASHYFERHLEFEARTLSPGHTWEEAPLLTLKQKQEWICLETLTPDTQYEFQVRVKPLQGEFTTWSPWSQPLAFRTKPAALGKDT
T3 sequence (looked up) 2: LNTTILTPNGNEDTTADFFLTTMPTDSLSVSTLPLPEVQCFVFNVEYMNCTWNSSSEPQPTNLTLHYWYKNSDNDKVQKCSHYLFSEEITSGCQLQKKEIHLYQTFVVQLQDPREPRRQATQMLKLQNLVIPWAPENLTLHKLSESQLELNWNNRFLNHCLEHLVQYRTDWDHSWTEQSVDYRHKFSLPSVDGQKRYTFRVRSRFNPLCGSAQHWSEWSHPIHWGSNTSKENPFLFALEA


Columns and labels:
[1] = biological target: T1, human IL-2Rαβγ (high-affinity IL-2 …); test: cell-based or functional assay
[2] = biological target: T2, human IL-2Rβγ on CD8+ effector T cells; test: flow cytometry on primary human CD8+ effector T cells, PE goat anti-human IgG, MFI
[3] = biological target: T3, recombinant human IL-2Rβγ protein; test: SPR (BIAcore 8K), bispecific protein captured by anti-human Fc on CM5, IL-2Rβγ in flow
human PD-1 = human PD-1 (human, UniProt Q15116 25-288); test: cell-based or functional assay
human PD-1, sequence (Q15116 25-288 limits assumed): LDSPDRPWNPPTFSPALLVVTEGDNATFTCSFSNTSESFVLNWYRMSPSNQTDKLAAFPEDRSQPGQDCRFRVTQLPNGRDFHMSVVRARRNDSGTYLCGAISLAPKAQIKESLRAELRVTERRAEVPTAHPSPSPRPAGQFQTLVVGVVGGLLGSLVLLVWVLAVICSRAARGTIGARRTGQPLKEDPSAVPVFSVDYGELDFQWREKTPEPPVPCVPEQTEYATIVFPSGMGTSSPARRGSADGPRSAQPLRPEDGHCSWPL

| EC50 (nM), activation of HEK-Blue/IL-2 cells [1] | EC50 ratio of IL-2 variant-containing protein to WT [1] | binding result [2] | Kd [3] | koff [3] | kon [3] | EC50 (ng/mL)-PD1+ HEK Blue/IL-2 (human PD-1) | Binder |
| --- | --- | --- | --- | --- | --- | --- | --- |
| 0.06 nM | 5 | binds |  |  |  |  | G12: Fc-linker-IL2-G12 (Fc fusion, IL-2 part IL2-G12 (delP34-K35)) [human IgG1 Fc omitted here]GGGSGGGGSGGGGSAPASSSTKKTQLQLEHLLLDLQMILNGINNYKNLTRMLTFKFYMPKKATELKHLQCLEEELKPLEEVLNLAQSKNFHLRPRDLISNINVIVLELKGSETTFMCEYADETATIVEFLNRWITFSQSIISTLT |
| 0.204 nM | 17 | binds |  |  |  |  | G13: Fc-linker-IL2-G13 (Fc fusion, IL-2 part IL2-G13 (delP34-K35, F42A)) [human IgG1 Fc omitted here]GGGSGGGGSGGGGSAPASSSTKKTQLQLEHLLLDLQMILNGINNYKNLTRMLTAKFYMPKKATELKHLQCLEEELKPLEEVLNLAQSKNFHLRPRDLISNINVIVLELKGSETTFMCEYADETATIVEFLNRWITFSQSIISTLT |
|  |  |  | 56.6 nM | 0.00763 s⁻¹ | 135000 M⁻¹ s⁻¹ | 166 ng/mL | bispecific recombinant protein 309-6 (other) heavy 1: QVQLVQSGVEVKKPGASVKVSCKASGYTFTNYYMYWVRQAPGQGLEWMGGINPSNGGTNFNEKFKNRVTLTTDSSTTTAYMELKSLQFDDTAVYYCARRDYRFDMGFDYWGQGTTVTVSSASTKGPSVFPLAPSSKSTSGGTAALGCLVKDYFPEPVTVSWNSGALTSGVHTFPAVLQSSGLYSLSSVVTVPSSSLGTQTYICNVNHKPSNTKVDKKVEPKSCDKTHTCPPCPAPEAAGGPSVFLFPPKPKDTLMISRTPEVTCVVVDVSHEDPEVKFNWYVDGVEVHNAKTKPREEQYNSTYRVVSVLTVLHQDWLNGKEYKCKVSNKALAAPIEKTISKAKGQPREPQVYTLPPSRDELTKNQVSLSCAVKGFYPSDIAVEWESNGQPENNYKTTPPVLDSDGSFFLVSKLTVDKSRWQQGNVFSCSVMHEALHNHYTQKSLSLSP heavy 2: QVQLVQSGVEVKKPGASVKVSCKASGYTFTNYYMYWVRQAPGQGLEWMGGINPSNGGTNFNEKFKNRVTLTTDSSTTTAYMELKSLQFDDTAVYYCARRDYRFDMGFDYWGQGTTVTVSSASTKGPSVFPLAPSSKSTSGGTAALGCLVKDYFPEPVTVSWNSGALTSGVHTFPAVLQSSGLYSLSSVVTVPSSSLGTQTYICNVNHKPSNTKVDKKV[human IgG1 Fc with L234A L235A P329A T366W (EU numbers) omitted here]GGGGSGGGGSGGGGSAPASSSTKKTQLQLEHLLLLLQMILNGINNYKNPLTRMLTAKFRMPKKATELKHLQCLEEELKPLEEVLNLAQSKNFHLRPRDLISNINVIVLELKGSETTFMCEYADETATIVEFLNRWITFSQSIISTLT light: EIVLTQSPATLSLSPGERATLSCRASKGVSTSGYSYLHWYQQKPGQAPRLLIYLASYLESGVPARFSGSGSGTDFTLTISSLEPEDFAVYYCQHSRDLPLTFGGGTKVEIKRTVAAPSVFIFPPSDEQLKSGTASVVCLLNNFYPREAKVQWKVDNALQSGNSQESVTEQDSKDSTYSLSSTLTLSKADYEKHKVYACEVTHQGLSSPVTKSFNRGEC |

— patent US20260242437A1 (BEIJING MABWORKS BIOTECH, published 2026)
